In the supplement of paper PMC12067093, “Discovery and optimisation of a covalent ligand for TRIM25 and its application to targeted protein ubiquitination” (Chemical Science, 2025):
Targets with the largest changes are over-represented here; the source holds about 21,000 in all.

Compound: CC1Cc2ccccc2N1C(=O)C1CCCN(C1)C(=O)CCl (mixture of isomers) [TRIM25 ligand 11 (diastereomer mixture)]
Test: probe-labelled cysteine peptide fold change vs DMSO (competition) (log2 fold change); higher = less target engagement (more negative = stronger competition)
Details: THP-1, incubation time: 4 h
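Also: competitive chemoproteomic profiling in live THP-1 cells with an iodoacetamide desthiobiotin (IA-DTB) probe, comparing probe-labelled peptide intensities in compound-treated cells against DMSO-treated controls.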

Target	probe-labelled cysteine peptide fold change (10 µM)	probe-labelled cysteine peptide fold change (50 µM)
PLXNA1_Q9UIW2_1525_GLDCDTVTQAK (UniProt Q9UIW2)	-0.109	-0.183
PEX5_P50542_11_ELVEAECGGANPLMK (UniProt P50542)	0.224	-0.00266
PREP_P48147_57_ITVPFLEQCPIR (UniProt P48147)	0.0699	-0.0713
POGZ_Q7Z3K3_532_HHVELDQQNGEVDGHTICQHCYR (UniProt Q7Z3K3)	0.124	-0.154
PGRMC1_O00264_129_GLATFCLDK<|>PGRMC2_O15173_159_GLATFCLDK (UniProt O15173+O00264)	-0.0817	-0.134
PLOD3_O60568_698_FLRYDCVISSPR (UniProt O60568)	-0.209	-0.131
PIP4P1_Q86T03_104_CGVCNEATPIK (UniProt Q86T03)	-0.0166	0.0399
PFAS_O15067_336_IRDVQCTGR (UniProt O15067)	-0.0959	0.0849
PFKM_P08237_709_IFANTPDSGCVLGMR (UniProt P08237)	-0.24	-0.19
PRR14L_Q5THK1_1483_DTESCTSPCLLGAPR (UniProt Q5THK1)	-0.0458	-0.271
POLK_Q9UBT6_545_SIIGFLQAGNQALSATECTLEK (UniProt Q9UBT6)	-0.109	-0.758
POSTN_Q15063_44_GRDQGPNVCALQQILGTK (UniProt Q15063)	0.664	0.513
PECAM1_P16284_476+481_DNPTEDVEYQCVADNCHSHAK (UniProt P16284)	0.0845	-0.173
PI4KA_P42356_1131_QNTTLGATQLSERPACVK (UniProt P42356)	-0.0117	–
PNN_Q9H307_249_MCPATQK (UniProt Q9H307)	-0.29	-0.93
PRRC2B_Q5JSZ5_1121_EFARPEDCPR (UniProt Q5JSZ5)	-0.142	-0.232
PHF23_Q9BUL5-4_5_MPGDCR (UniProt Q9BUL5)	1.01	1.12
PREX1_Q8TCU6_1173_DSYSECNSNR (UniProt Q8TCU6)	0.675	0.807
PLAUR_Q03405_39_VEECALGQDLCR (UniProt Q03405)	0.0182	-0.119
PPP4R1_Q8TF05_566_SDLQDELDINELPNCK (UniProt Q8TF05)	-0.0791	-0.173
PRXL2A_Q9BRX8_85_RPGCFLCR (UniProt Q9BRX8)	-2.41	-2.22

Target	probe-labelled cysteine peptide fold change (10 µM)	probe-labelled cysteine peptide fold change (50 µM)
PRKCB_P05771_71_QGFQCQVCCFVVHKR (UniProt P05771)	-0.248	-0.0818
PRRC2C_Q9Y520_620_QESENSCNK (UniProt Q9Y520)	0.0427	0.153
PGK1_P00558_108_ACANPAAGSVILLENLR (UniProt P00558)	0.0224	-0.137
POLDIP3_Q9BY77_301_VTEEDIVELFCVCGALK (UniProt Q9BY77)	0.113	0.0575
POLA1_P09884_1180_AGDTVSYVICQDGSNLTASQR (UniProt P09884)	-0.229	0.0571
PRMT1_Q99873-3_15_AAAEAANCIMEVSCGQAESSEK (UniProt Q99873)	0.348	0.353
PPP2R5D_Q14738_17_CTAKPSSSGK (UniProt Q14738)	-0.467	-0.717
PLEC_Q15149_4245+4254_CITDPQTGLCLLPLK (UniProt Q15149)	0.0469	0.552
POLE_Q07864_558_SDIPCR (UniProt Q07864)	0.218	0.196
PPIP5K2_O43314_382_CVIAVIR (UniProt O43314)	-0.0407	0.136
PIP4K2A_P48426_343_CHENSPR (UniProt P48426)	0.365	-0.0671
PGM2_Q96G03_510_ACGKFEISAIR (UniProt Q96G03)	-0.602	-0.498
PRPF6_O94906_513_ANGVEINREQWIQDAEECDR (UniProt O94906)	-0.43	-0.344
PRSS12_P56730_739_LQGPEEQCAR (UniProt P56730)	-0.0442	0.0478
PPFIBP2_Q8ND30_837_KFDESTDYICPMEPSDGVSDSHR (UniProt Q8ND30)	-0.0603	-0.214
PPIB_P23284_202_DVIIADCGKIEVEKPFAIAK (UniProt P23284)	-0.714	-0.589
PRKDC_P78527_3683_ECSPWMSDFKVEFLRNELEIPGQYDGR (UniProt P78527)	-0.7	-0.257
PPFIBP2_Q8ND30_685_CAIHVLHVNK (UniProt Q8ND30)	0.226	0.421
PFN1_P07737_128_KCYEMASHLRR (UniProt P07737)	-0.652	-0.367
PGAM1_P18669_55_DAGYEFDICFTSVQK (UniProt P18669)	0.108	0.0968
PLA2G4A_P47712_634_DCPTIIHFVLANINFR (UniProt P47712)	-0.109	-0.0909

Target	probe-labelled cysteine peptide fold change (10 µM)	probe-labelled cysteine peptide fold change (50 µM)
PPP6R1_Q9UPN7_172_LLTCVERPQLR (UniProt Q9UPN7)	0.0673	0.288
PPIP5K2_O43314_164_ECNLIEGEDHVEVNGEVFQKPFVEK (UniProt O43314)	0.0803	0.212
PPP6R1_Q9UPN7_216_DENQHSNASQSLCDIIR (UniProt Q9UPN7)	0.00266	-0.0457
PRIM2_P49643_367_RTDYTPFSCLK (UniProt P49643)	-0.0349	0.0509
PPIF_P30405_104_VIPSFMCQAGDFTNHNGTGGK (UniProt P30405)	0.0126	-0.0527
PIBF1_Q8WXW3_334_CAHEEDRLER (UniProt Q8WXW3)	1.04	0.237
PPP2R2A_P63151_13_AGAGGGNDIQWCFSQVK (UniProt P63151)	-0.0885	-0.145
POP1_Q99575_706_LGTLAPFCCPWEQLTQDWESR (UniProt Q99575)	-0.0314	-0.242
PRDX6_P30041_91_DINAYNCEEPTEK (UniProt P30041)	0.103	-0.0888
PFAS_O15067_318_HVVFTAETHNFPTGVCPFSGATTGTGGR (UniProt O15067)	-0.104	-0.163
POP1_Q99575_845_EACLSILGHFPR (UniProt Q99575)	0.137	0.144
PPP4R2_Q9NY27_22+30_EVCPVLDQFLCHVAK (UniProt Q9NY27)	-0.109	-0.258
PLEKHF2_Q9H8W4_129_CVTDLLSK (UniProt Q9H8W4)	0.123	0.4
PRDX1_Q06830_71+83_KLNCQVIGASVDSHFCHLAWVNTPKK (UniProt Q06830)	-0.375	-0.184
PRMT7_Q9NVM4_366+368_QMRPVCDCQAHLLWNRPR (UniProt Q9NVM4)	0.0126	-0.062
POLD1_P28340_263_FMVDTDIVGCNWLELPAGK (UniProt P28340)	-0.011	-0.00675
PRKCB_P05771_86_CHEFVTFSCPGADK (UniProt P05771)	0.158	0.0763
PRPF39_Q86UA1_413_ACTIHLPK (UniProt Q86UA1)	0.0312	0.0595
PPIP5K1_Q6PFW1_627_SANMNGLLDSDGDSLSSCQHR (UniProt Q6PFW1)	-0.0216	-0.728
PELP1_Q8IZL8_71_SAPHLPGLMCLLR (UniProt Q8IZL8)	-0.312	-0.712
PLXNB2_O15031_279_DPDIHAAAFGTCLAASVAAPGSGR (UniProt O15031)	-0.284	-0.301

Target	probe-labelled cysteine peptide fold change (10 µM)	probe-labelled cysteine peptide fold change (50 µM)
PRKCA_P17252_143+151_QCVINVPSLCGMDHTEKR (UniProt P17252)	-0.157	-0.459
PEBP1_P30086_133_CDEPILSNR (UniProt P30086)	0.116	0.0755
PPM1F_P49593_359_ALTGSEDYLLLACDGFFDVVPHQEVVGLVQSHLTR (UniProt P49593)	-0.201	-0.609
POLA2_Q14181_392_HEQVENCLLTSPFEDIFK (UniProt Q14181)	0.268	-0.00578
POLR2A_P24928_1407_HLALLCDTMTCR (UniProt P24928)	0.0209	0.0484
PLXND1_Q9Y4D7_752_CEASPNPTSPQDCPR (UniProt Q9Y4D7)	0.138	0.00613
PMS1_P54277_868_EVYECRPR (UniProt P54277)	-0.0515	-0.0199
POP1_Q99575_777_EAEEVMDAGCQESAGPER (UniProt Q99575)	0.0867	-0.179
PRKDC_P78527_223_LPVLAGCLK (UniProt P78527)	-0.12	0.0647
POLD1_P28340_713_LPCLEISQSVTGFGR (UniProt P28340)	0.00388	0.165
PRKD2_Q9BZL6_278_VPHTFLIHSYTRPTVCQACK (UniProt Q9BZL6)	-0.272	0.0117
PECAM1_P16284_405_SNTVQIVVCEMLSQPR (UniProt P16284)	-0.029	0.11
PHLPP1_O60346_859_LGDLDAMIFNNIEVLHCER (UniProt O60346)	0.218	0.0372
PIK3CD_O00329_382_QRLEFDINICDLPR (UniProt O00329)	0.0375	0.229
PRKCI_P41743_157_AHCAICTDR (UniProt P41743)	0.573	0.293
PIAS3_Q9Y6X2_620_EGHGGPLPSGPSLTGCR (UniProt Q9Y6X2)	0.562	0.00823
PLEC_Q15149_3299_GCLDEETSR (UniProt Q15149)	0.0354	-0.102
PRPF6_O94906_807_ALQECPNSGILWSEAIFLEARPQRR (UniProt O94906)	-0.16	0.0594
PREP_P48147_352_SNFLVLCYLHDVK (UniProt P48147)	0.19	0.15
PMM2_O15305_136_SCSQEER (UniProt O15305)	1.27	0.84
PLAUR_Q03405_98_ITSLTEVVCGLDLCNQGNSGR (UniProt Q03405)	-0.38	-0.0409
